Reference: article PMC6919601, “Identification of Plasmodium dipeptidyl aminopeptidase allosteric inhibitors by high throughput screening” (PLoS ONE, 2019)
The whole screen tested about 110,000 compounds, of which about 230 (0.21%) showed an effect of 50% or more. Some of the results follow.

What follows are compounds tested against DPAP1 (Plasmodium falciparum, UniProt Q8IIJ9) (assay: primary screen, percent inhibition; read by cleavage of a fluorogenic dipeptide substrate; higher = more effect of the substance).
DPAP1, sequence (Q8IIJ9 whole entry, looked up): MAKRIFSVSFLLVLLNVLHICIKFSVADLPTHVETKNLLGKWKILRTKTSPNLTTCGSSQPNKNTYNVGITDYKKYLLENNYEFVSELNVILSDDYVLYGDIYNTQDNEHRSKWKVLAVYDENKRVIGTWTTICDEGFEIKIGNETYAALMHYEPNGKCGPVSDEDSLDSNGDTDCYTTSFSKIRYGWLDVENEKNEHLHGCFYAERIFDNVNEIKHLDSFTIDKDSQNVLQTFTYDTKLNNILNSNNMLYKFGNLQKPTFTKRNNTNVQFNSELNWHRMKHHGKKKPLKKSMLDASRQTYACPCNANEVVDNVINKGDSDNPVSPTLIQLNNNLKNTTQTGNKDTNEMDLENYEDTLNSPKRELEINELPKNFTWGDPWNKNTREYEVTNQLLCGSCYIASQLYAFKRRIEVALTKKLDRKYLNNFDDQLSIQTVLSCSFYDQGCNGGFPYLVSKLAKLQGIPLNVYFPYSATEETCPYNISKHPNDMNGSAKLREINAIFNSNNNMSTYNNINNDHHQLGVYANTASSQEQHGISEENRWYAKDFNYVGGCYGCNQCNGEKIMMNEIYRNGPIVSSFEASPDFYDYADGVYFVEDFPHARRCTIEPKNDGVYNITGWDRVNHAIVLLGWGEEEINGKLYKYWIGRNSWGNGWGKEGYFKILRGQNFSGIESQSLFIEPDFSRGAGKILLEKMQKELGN
Design: species or system P. falciparum D10 trophozoite lysates; single well
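Further: 30 min substrate incubation versus DMSO and 10 µM JCP410 controls.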

Going from COc1cccc(/C=N/NC(N)=S)c1 to COc1ccc(C(=O)CCC(=O)Nc2cccc(C)c2)cc1, the “% Inhibition @ 10 uM” value falls from -1.03% to -1.26%.

First: COc1cc(CNCCC2CCOC(C)(C)C2)ccc1O (stereo not drawn)
Second: CCCCC(=O)C1CCOC(C)(C)C1 (stereo not drawn)
The “% Inhibition @ 10 uM” value of the first is higher: 3.59% for the first, -2.44% for the second.

Compared with O=[N+]([O-])c1ccc2[nH]c(-c3ccccc3)cc2c1, O=c1oc2ccccc2cc1-c1ccc([N+](=O)[O-])cc1 is higher in “% Inhibition @ 10 uM” value: -6.99% for the first, -0.9% for the second.

First: O=C(c1ccc(-c2nnc(-c3ccccc3)o2)cc1)N1CCCCCC1
Second: O=C(c1cc(-c2ccccc2)nc2ccccc12)N1CCCCC1
The “% Inhibition @ 10 uM” value of the first is lower: -1.26% for the first, 3.65% for the second.

First: CCOC(=O)C1=C(N)Oc2ccc3ccccc3c2C1c1ccncc1 (stereo not drawn)
Second: COc1ccccc1C(=O)Nc1ccc2oc(-c3ccncc3)nc2c1
The “% Inhibition @ 10 uM” value of the first is lower: -4.93% for the first, 1.08% for the second.

Going from CCOc1ccccc1NC(=O)COc1c(C)ccc(C)c1C to COc1cc(NC(=O)COc2ccccc2C(C)C)c(OC)cc1Cl, the “% Inhibition @ 10 uM” value falls from 0.956% to -5.07%.

Compared with C=CCN1CCN(c2ccncc2S(=O)(=O)N2CCCCC2)CC1, O=C1c2ccccc2-c2onc3ccc(N4CCCC4)c1c23 is higher in “% Inhibition @ 10 uM” value: 1.94% for the first, 15.5% for the second.

First: Cc1ccc(NS(=O)(=O)c2ccccc2)cc1O
Second: Cc1ccc(NS(=O)(=O)c2ccc(NC(=O)CCC(=O)O)cc2)cc1C
The “% Inhibition @ 10 uM” value of the first is higher: 3.91% for the first, -4.26% for the second.

Compared with CCOc1ccc(-c2cc(N)n(S(=O)(=O)c3ccc(F)c(C)c3)n2)cc1, Cc1cccc(Cn2c(C)c(CNCCc3ccc(S(N)(=O)=O)cc3)c(C(=O)O)c2C)c1 is higher in “% Inhibition @ 10 uM” value: -5.76% for the first, 2.99% for the second.

Going from Cc1ccccc1CN1CCC(CNc2ncnc3onc(C)c23)CC1 to COc1cccc(C(=O)N2CCN(Cc3ccccc3OC)CC2)c1, the “% Inhibition @ 10 uM” value rises from -7.93% to 2.45%.

Going from CC(=O)c1coc2c1cc(O)c1ccccc12 to COC(=O)c1c(SC)nc2ccccc2c1OCc1ccc(F)cc1, the “% Inhibition @ 10 uM” value falls from -3.48% to -6.5%.

First: O=C(O)c1ccccc1C(=O)c1ccc(Oc2ccccc2)cc1
Second: CN1CC2(C(=O)c3ccccc3)CN(C)CC(C(=O)c3ccccc3)(C1)C2
The “% Inhibition @ 10 uM” value of the first is higher: 13.3% for the first, -1.81% for the second.

Going from O=c1/c(=C/c2ccccc2Br)sc2nc(C3COc4ccccc4O3)nn12 (stereo not drawn) to CC(CCc1ccccc1)NC(=O)Cn1c2ccccc2c2cnnc(O)c21 (stereo not drawn), the “% Inhibition @ 10 uM” value falls from 3.54% to -2%.

Compared with COC(=O)C1=C(C)N(C)C(C)=C(C(=O)OC)C1c1ccccc1C, COc1ccc(OC)c(C2C(C(=O)Nc3ccccc3)=C(C)Nc3ncnn32)c1 (stereo not drawn) is lower in “% Inhibition @ 10 uM” value: -0.142% for the first, -1.2% for the second.

First: COc1cccc(C2C(C#N)=C(N)OC3=C2C(=O)CC(c2ccccc2)C3)c1 (stereo not drawn)
Second: CCCC1=C(C(=O)OCC)C(c2ccc(F)cc2)C(C#N)=C(N)O1 (stereo not drawn)
The “% Inhibition @ 10 uM” value of the first is higher: 6.18% for the first, -1.93% for the second.

First: CC(C)c1ccc(-c2c(NCCC3=CCCCC3)c(=O)c2=O)cc1
Second: Cc1cc(N(C)CCC#N)n2nc(C)c(-c3ccc(Cl)cc3)c2n1
The “% Inhibition @ 10 uM” value of the first is higher: 0.589% for the first, -6.4% for the second.

First: N#C/C(=C\c1ccc([N+](=O)[O-])cc1)c1nc(C2CC2)cs1
Second: Cc1ccc(/C=C(/C#N)c2nc(-c3ccccc3)cs2)o1
The “% Inhibition @ 10 uM” value of the first is lower: -5.94% for the first, -2.28% for the second.

Compared with CCOC(=O)N1CCC(NC(=O)c2cc(C(=O)NC3CCCC3)ccc2CO)CC1, Cc1oc(-c2ccccc2Cl)nc1CSCC(=O)NC1CC1 is lower in “% Inhibition @ 10 uM” value: 0.708% for the first, -2.85% for the second.

Going from COc1ccccc1[C@H](C)C[C@H](NC(=O)OCc1ccccc1)C(=O)NCC#N to O=C1c2ccccc2C(=O)N1Cc1cccc(O)c1, the “% Inhibition @ 10 uM” value rises from -5.2% to 0.0152%.

Compared with CCCCC(=O)Nc1ccc(-c2nc3cc(Cl)ccc3o2)c(O)c1, COc1ccc(NC(=O)CSc2nc3ccc(OC)cc3cc2C#N)c(OC)c1 is lower in “% Inhibition @ 10 uM” value: 2.38% for the first, -0.941% for the second.

Going from COC(=O)c1cc(S(=O)(=O)NCCc2sccc2C)c[nH]1 to Cc1[nH]c2ccccc2c1C(=O)CSc1nc[nH]n1, the “% Inhibition @ 10 uM” value rises from -6.25% to -5.11%.

First: O=C(c1ccccc1Br)N1CCN(c2ccc(F)cc2)CC1
Second: O=C(c1ccc(Cl)cc1)N1CCN(c2cccc(Cl)c2)CC1
The “% Inhibition @ 10 uM” value of the first is higher: 3.95% for the first, -3.27% for the second.

Going from COc1ccc(C(=O)Nc2cc(OC)c(Cl)cc2OC)c(OC)c1 to COc1cc(C2C3=C(CC(C)(C)CC3=O)OC3=C2C(=O)CC(C)(C)C3)c(Br)cc1O, the “% Inhibition @ 10 uM” value falls from 9.94% to 7.76%.

Compared with Cc1ccccc1-c1noc(CC#N)n1, Cc1cc(N2CC(C)OC(C)C2)n2c(nc3ccccc32)c1C#N (stereo not drawn) is higher in “% Inhibition @ 10 uM” value: -3.85% for the first, 18.2% for the second.

First: Cc1ccc(Cn2ccn(Cc3ccc(F)cc3)c(=O)c2=O)cc1
Second: Cc1ccc(-c2cc3c4c(C)n(Cc5ccccc5)c(C)c4c(C)nn3c2)o1
The “% Inhibition @ 10 uM” value of the first is higher: 0.0845% for the first, -2.92% for the second.

With CC1=C(C)CC2C(=O)N(c3ccc(N4CCOCC4)cc3)C(=O)C2C1 (stereo not drawn) the “% Inhibition @ 10 uM” value was 0.0792%.
